Test results: PubChem BioAssay AID1347120 (National Center for Advancing Translational Sciences (NCATS), 2019)
Among all 390,000 compounds or so, about 930 (0.24%) were called active. Inconclusive means that the source gave no clear call. Such entries were picked first, then a sample of the others. The call rests on the fitted dose curve; in most records, active means well fitted activation curve with a large enough effect; inconclusive means small, poorly fitted or top-dose-only effect; inactive means no such curve, though single readings can be large or run the other way. Where the call is inconclusive, the potency comes from a doubtful curve fit.

Experiment: qHTS for Suppressors of FUS Proteinopathy: Primary screen using FUS-linked yeast assay; further: nearly all actives have a fitted effect of over 55% in size;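 on growth rescue (activation): plate controls were DMSO vehicle for no effect and reference control for full effect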
Conditions: S. cerevisiae FUS-expressing, OD600, 24 h; Potency: growth rescue; growth rescue (activation): at 76.6 µM (top of the series)
Procedure, shortened: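 Yeast expressing FUS under galactose induction, OD 0.005 in 2% galactose medium; compounds in a dilution series, 24 h at 30C. Growth rescue by absorbance at 600 nm; CP55940 positive control, DMSO negative.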
Potency means the concentration at half of the fitted maximal effect; tags describe the fitted curve by direction and shape.

Structure (SMILES)	Potency	growth rescue (activation)
CC(C)c1ccc(OCc2nnc(SCC(=O)N3CCCCC3)o2)cc1	inconclusive: 17.8 µM [activator, partial curve]	
CCN1C(=O)c2ccccc2Sc2ccc(NC(=O)N3CCN(c4cc(C)ccc4C)CC3)cc21	inconclusive: 8.91 µM [activator, partial curve]	
C[C@H](CO)N1C[C@H](C)[C@H](CN(C)C(=O)Nc2ccc(F)cc2)OCc2ccccc2-c2c(n(C)c3ccccc23)C1=O	inconclusive: 22.4 µM [activator, partial curve, poor fit]	
CC(C)c1ccc(NC(=O)C2(C)Cc3c(-c4ccc(C(N)=O)cc4)ccnc3O2)cc1 (stereo unspecified)	inconclusive: 31.6 µM [activator, single point]	
CCCOc1ccc(-c2cccc(NS(=O)(=O)c3ccccc3)c2)nn1	inconclusive: 31.6 µM [activator, partial curve, poor fit]	
COc1ccc(S(=O)(=O)N(C)C[C@@H]2Oc3cc(C#CC4CCCCC4)ccc3S(=O)(=O)N([C@@H](C)CO)C[C@@H]2C)cc1	inconclusive: 20 µM [activator, single point]	
Cc1cc(NC(=O)c2ccc(NS(=O)(=O)c3ccc(F)cc3)cc2)no1		inactive: -2.31%
Cc1ccccc1CN1C(=O)c2ccccc2S(=O)c2ccc(C(=O)NCc3ccc(Cl)cc3)cc21 (stereo unspecified)	inconclusive: 3.16 µM [activator, full curve]	
Cc1ccc(NC2=C(Cl)C(=O)OC2OC(=O)c2ccccc2)c(C)c1 (stereo unspecified)		inactive: 10.5%
CCn1c(-c2nonc2NC(=O)c2ccccc2)nc2ccccc21		inconclusive: 120% [activator]
O=C(O)c1ccc(N=C2SCC(=O)N2Cc2ccccc2)cc1		inactive: 38.3%
CC(=O)N1c2ccc(S(=O)(=O)N(C)CC(=O)NCc3ccccc3)cc2CC1C (stereo unspecified)		inactive: -5.75%
COc1ccc(NC(C)=O)cc1S(=O)(=O)N1CCn2cccc2C1C (stereo unspecified)	inconclusive: 31.6 µM [activator, single point]	
COc1ccc(N2CC(NC(=O)/C=C\c3ccc4c(c3)OCO4)CC2=O)cc1OC (stereo unspecified)		inactive: 10%
COC(=O)[C@@]1(Cc2ccc(F)cc2)[C@H]2c3cc(C(=O)N4CCCC4)n(C)c3C[C@H]2CN1C(=O)c1ccccc1	inconclusive: 7.94 µM [activator, full curve, poor fit]	
COc1cc(C(=O)NCc2nnc(SCC(=O)c3ccc(Cl)cc3)o2)cc(OC)c1OC	inconclusive: 14.1 µM [activator, partial curve, poor fit]	
COc1ccc2c(Cl)c(C(=O)N/N=C/c3c(C)[nH]c4ccccc34)sc2c1	inconclusive: 39.8 µM [activator, single point]	
CCOc1cc(CNc2ccc3c(c2)CCC3)ccc1O		inactive: 24%
COc1ccc(COc2cc(-c3cccc(OC)c3)nc3ccc(NC(=O)c4ccc(N(C)C)cc4)cc23)cc1	inconclusive: 15.8 µM [activator, partial curve, poor fit]	
COc1ccc(NC(=O)N(C)C[C@H]2Oc3ccc(NC(=O)Nc4ccc(C(F)(F)F)cc4)cc3C(=O)N([C@H](C)CO)C[C@@H]2C)cc1	active: 35.5 µM	
CCOc1cc(C(c2c(C)[nH][nH]c2=O)c2c(C)[nH][nH]c2=O)ccc1OC(=O)c1cccc([N+](=O)[O-])c1	active: 35.5 µM	

Structure (SMILES)	Potency	growth rescue (activation)
CCOC(=O)[C@H]1[C@H]2COc3ccc(Br)cc3[C@@H]2N2C(=O)N(c3ccccc3)C(=O)[C@@]12C	inconclusive: 39.8 µM [activator, partial curve, poor fit]	
O=C(N[C@H]1C/C=C\C[C@H](CC(=O)N(CCO)Cc2ccccc2)C(=O)NC[C@H](c2ccccc2)OC1=O)OCC1c2ccccc2-c2ccccc21	inconclusive: 44.7 µM [activator, single point]	
Cc1ccc2nsnc2c1S(=O)(=O)N1CCN(C(=O)C2CCCO2)CC1 (stereo unspecified)		inactive: 14.7%
O=C(NCCS(=O)(=O)N1CCN(c2ccccc2)CC1)c1ccccc1F	inconclusive: 44.7 µM [activator, partial curve, poor fit]	
Cc1ccc(-c2csc(-c3cc4c([nH]c3=O)CC(c3ccccc3)CC4=O)n2)cc1 (stereo unspecified)		inactive: 2.13%
CC1=NN2C(=N)/C(=C\c3cc(C)n(-c4cccc(C)c4)c3C)C(=O)N=C2S1	inconclusive: 7.94 µM [activator, single point]	
COc1ccc2[nH]c3c(NCCN(C(C)C)C(C)C)ncnc3c2c1	inconclusive: 2.82 µM [activator, full curve]	
NC(=O)c1c(NC(=O)CS(=O)(=O)c2ccc(Cl)cc2)sc2c1CCCCC2		inactive: 20.7%
Fc1ccc(-c2cc(-c3cccs3)cc(-c3ccccc3)n2)cc1		inactive: 0.291%
C=CCC[C@@H](Cc1ccc(F)cc1)C(=O)OC[C@@H]1CCCN1C(=O)[C@@H](CC=C)CC(=O)N[C@@H](CO)Cc1ccccc1	active: 22.4 µM	
Cc1ccccc1NC(=O)c1c(C)oc2ccc(O)c(CN3CCOCC3)c12		inactive: 20%
CCOC(=O)C1=CCN(S(=O)(=O)c2ccccc2[N+](=O)[O-])C1c1ccc(C)cc1 (stereo unspecified)	inconclusive: 31.6 µM [activator, partial curve, poor fit]	
CCc1ccc2[nH]c(=O)c(C(c3nnnn3CCOC)N3CCN(c4ccc(F)cc4)CC3)cc2c1 (stereo unspecified)	inconclusive: 50.1 µM [activator, single point]	
COc1cc(-c2nnc(SCC(=O)c3cc(C)n(CC4CCCO4)c3C)o2)cc(OC)c1OC (stereo unspecified)	inconclusive: 35.5 µM [activator, single point]	
COc1ccc(N(C(=O)c2snc(C(N)=O)c2N)C(C(=O)NC2CCCC2)c2ccc3ncccc3c2)cc1 (stereo unspecified)	active: 28.2 µM	
COc1cc(/C=C/C(=O)OCC(=O)c2c(N)n(C)c(=O)n(C)c2=O)ccc1OC(F)F	inconclusive: 28.2 µM [activator, partial curve, poor fit]	
N/C(=N\OC(=O)N1c2ccccc2Sc2ccccc21)c1ccccc1		inactive: 30.5%
CSc1nc2ccccc2cc1/C=C(\C#N)c1ccc(Cl)c(Cl)c1	inconclusive: 6.31 µM [activator, partial curve, poor fit]	
O=C(Nc1ccc(Br)cc1F)c1ccc2c(c1)N(Cc1ccccc1)C(=O)CS2=O (stereo unspecified)	inconclusive: 28.2 µM [activator, single point]	
Oc1cc(CNC2CCCCC2)c(O)cc1CNC1CCCCC1	inconclusive: 35.5 µM [activator, partial curve, poor fit]	
CCC(C)[C@H](NC(=O)OC(C)(C)C)C(=O)N/N=C/C1=Cc2ccccc2OC1 (stereo partly specified)	active: 28.2 µM	

Structure (SMILES)	Potency	growth rescue (activation)
COc1ccc(C(=O)N/N=C/c2sc(N3CCOCC3)nc2-c2ccccc2)cc1OC	inconclusive: 39.8 µM [activator, single point]	
Cc1c(Cl)cccc1NS(=O)(=O)c1ccc(-c2cnc(C3CC3)o2)cc1	inconclusive: 31.6 µM [activator, partial curve, poor fit]	
CC(C)CCN(C(=O)c1csnn1)C(C(=O)NC1CCCC1)c1ccccc1 (stereo unspecified)	inconclusive: 15.8 µM [activator, partial curve, poor fit]	
COc1ccc(Oc2nc(-c3ccccn3)nc3ccccc23)cc1		inactive: 22.1%
CCN(C(=O)Cn1c(=O)n(-c2ccccc2)c(=O)c2ccc(C(=O)NCc3ccc4c(c3)OCO4)cc21)c1cccc(C)c1	active: 35.5 µM	
CS(=O)(=O)Nc1cccc(-c2cc(NC=O)c3ncc(-c4ccc(F)cc4)n3c2)c1	inconclusive: 50.1 µM [activator, single point]	
CCN(C(=O)CN1CCN(c2nc(-c3ccccc3)cs2)CC1)c1ccccc1C	inconclusive: 14.1 µM [activator, partial curve, poor fit]	
CC(C)c1ccc(O)c(C(=O)c2cnn(-c3ccccc3)c2)c1		inactive: 12.3%
CC(C)C[C@@H](CN1CCCC1CN1C(=S)NC[C@@H]1Cc1ccc(O)cc1)N1C[C@H](Cc2ccccc2)N(CC2CCCCCC2)C1=S (stereo partly specified)	inconclusive: 44.7 µM [activator, single point]	
COc1cc(NS(=O)(=O)c2ccc(NC(=S)NC(=O)c3ccc(F)cc3)cc2)nc(OC)n1	inconclusive: 50.1 µM [activator, single point]	
CN1C(=O)/C(=C2\SC(N3CCCCCC3)=NC2=O)c2ccccc21		inactive: 32.7%
C#Cc1ccc(NC(=O)C2(C)CCN2C(=O)C/C=C/c2ccccc2)cc1 (stereo unspecified)		inactive: 31.8%
O=C(CSc1oc(-c2ccccc2)nc1S(=O)(=O)c1ccc(Cl)cc1)c1ccccc1	inconclusive: 39.8 µM [activator, single point]	
O=C(CNC(=O)c1ccc(Br)o1)NCc1ccc2c(c1)OCO2	inconclusive: 11.2 µM [activator, partial curve, poor fit]	
O=S1(=O)c2ccc(N3CCSCC3)cc2Oc2ccccc2CN1Cc1cn(Cc2ccc(F)cc2)nn1	inconclusive: 28.2 µM [activator, partial curve, poor fit]	
COc1cccc(CNC(=O)c2ccc(F)c(S(=O)(=O)N3CCCCC3)c2)c1	active: 35.5 µM	
COC(=O)[C@H]1C[C@@H]1[C@H](NC(=O)[C@H]1C[C@@H]1[C@H](NC(=O)OCc1ccccc1)c1ccccc1)c1ccccc1	inconclusive: 28.2 µM [activator, single point]	
COc1ccc(C(O)c2nc(-c3ccc(F)cc3OC)cs2)cc1 (stereo unspecified)		inactive: -6.25%
CCNC(=S)NNC(=O)c1cc(-c2cc(C)ccc2C)nc2ccccc12	inconclusive: 5.62 µM [activator, full curve, poor fit]	
